The campaign covered roughly 350,000 compounds. About 31,000 (8.9%) were called active. Inconclusive means that the source gave no clear call. Such entries were picked first, then a sample of the others. The call rests on the fitted dose curve; in most records, active means well fitted inhibition curve with a large enough effect; inconclusive means small, poorly fitted or top-dose-only effect; inactive means no such curve, though single readings can be large or run the other way. A potency beside an inconclusive call is a rough fit, not a confirmed value.
Biological target: Histone-lysine N-methyltransferase EHMT2 (Homo sapiens) (UniProt Q96KQ7)
UniProt Q96KQ7, sequence (Q96KQ7 whole entry, looked up): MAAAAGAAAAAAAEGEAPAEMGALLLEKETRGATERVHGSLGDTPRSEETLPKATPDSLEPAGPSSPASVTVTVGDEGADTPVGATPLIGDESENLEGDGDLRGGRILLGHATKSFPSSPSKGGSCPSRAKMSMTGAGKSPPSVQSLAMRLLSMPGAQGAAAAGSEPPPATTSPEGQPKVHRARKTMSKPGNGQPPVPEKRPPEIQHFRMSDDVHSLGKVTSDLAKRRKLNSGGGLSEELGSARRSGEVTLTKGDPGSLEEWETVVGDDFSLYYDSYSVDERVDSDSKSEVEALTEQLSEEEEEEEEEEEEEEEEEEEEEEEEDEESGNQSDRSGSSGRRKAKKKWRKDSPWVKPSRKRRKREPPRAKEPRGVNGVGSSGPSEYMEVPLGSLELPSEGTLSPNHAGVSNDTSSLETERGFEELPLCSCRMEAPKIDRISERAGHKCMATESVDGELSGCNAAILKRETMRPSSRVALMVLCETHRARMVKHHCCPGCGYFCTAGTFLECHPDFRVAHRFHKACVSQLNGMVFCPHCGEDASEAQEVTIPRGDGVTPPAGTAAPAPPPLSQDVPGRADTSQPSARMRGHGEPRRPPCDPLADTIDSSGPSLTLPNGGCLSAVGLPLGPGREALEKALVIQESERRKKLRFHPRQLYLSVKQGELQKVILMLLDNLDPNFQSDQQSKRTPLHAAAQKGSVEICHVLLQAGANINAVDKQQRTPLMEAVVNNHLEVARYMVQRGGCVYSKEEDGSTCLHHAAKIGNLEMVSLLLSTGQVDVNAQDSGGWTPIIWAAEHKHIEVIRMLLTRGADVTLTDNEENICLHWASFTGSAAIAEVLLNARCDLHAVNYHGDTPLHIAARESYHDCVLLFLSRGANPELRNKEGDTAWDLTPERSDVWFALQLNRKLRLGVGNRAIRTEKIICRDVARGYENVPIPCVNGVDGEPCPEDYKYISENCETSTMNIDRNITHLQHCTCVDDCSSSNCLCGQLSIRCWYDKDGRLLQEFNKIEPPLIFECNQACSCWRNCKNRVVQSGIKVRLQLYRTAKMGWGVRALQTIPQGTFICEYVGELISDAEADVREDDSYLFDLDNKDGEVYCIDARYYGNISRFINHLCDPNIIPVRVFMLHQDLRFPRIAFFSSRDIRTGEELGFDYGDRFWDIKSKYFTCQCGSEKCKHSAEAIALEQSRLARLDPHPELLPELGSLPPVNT
Assay: qHTS Assay for Inhibitors of Histone Lysine Methyltransferase G9a; further: nearly all actives have a fitted effect of over 75% in size
Settings: G9a H3K9 monomethylation, AlphaScreen, 2 h; activity, negative = inhibition: at 59 µM (top of the series) unless noted
Method in brief: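 Methyltransferase reactions run at room temperature for 2 h (20 nM enzyme, 500 nM biotin-H3K9 peptide, 20 uM SAM) after a 15 min compound preincubation; product detected by AlphaScreen beads and anti-H3K9me1 antibody.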
On the % scale 0 is the no-effect control and ±100 the full control effect; potency means the concentration at half of the fitted maximal effect; tags describe the fitted curve by direction and shape.

Row | SMILES | Potency | activity, negative = inhibition
1 | CSc1ccc(/C=N/n2c(C)nnc2C)cc1 | inconclusive: 79.4 µM [inhibitor, single point] | 
2 | COc1ccccc1C(C)Nc1ccc(S(=O)(=O)N2CCN(C)CC2)cc1[N+](=O)[O-] (centres undefined) | inconclusive: 3.98 µM [inhibitor, single point] | 
3 | NS(=O)(=O)c1ccc(NC(=O)NC2CC(=O)N(c3ccc4c(c3)OCCO4)C2)cc1 (centres undefined) | inconclusive: 50.1 µM [inhibitor, partial curve] | 
4 | Nc1cccc2c1C(=O)N(CCOc1ccccc1F)C2=O |  | inactive: 124% [at 102 µM]
5 | NC(=O)C[n+]1cccc2ccccc21 | inconclusive: 20 µM [inhibitor, partial curve, poor fit] | 
6 | CN1CCN(CC(O)COc2ccc(C34CC5CC(CC(C5)C3)C4)cc2)CC1 (centres undefined) |  | inconclusive: -83.2% [inhibitor]
7 | Cc1ccc2nc(N(CCCN(C)C)C(=O)COc3ccc(Cl)cc3)sc2c1 | inconclusive: 11.2 µM [inhibitor, partial curve, poor fit] | 
8 | CC/C(=N\NC(=O)c1cccnc1)c1ccc2c(c1)OCCO2 | inconclusive: 28.2 µM [inhibitor, single point] | 
9 | CCOC(=O)C1CCN(c2ncnc3c2[nH]c2cccc(OC)c23)CC1 | inconclusive: 39.8 µM [inhibitor, single point] | 
10 | COC1=CC(=O)C=C(OC)C1=O |  | inconclusive: -60.5% [inhibitor] [at 2.33 µM]
11 | Cn1c(=O)n(C)c2cc(N3CCOCC3)c(NS(=O)(=O)c3cccc(C#N)c3)cc21 | active: 6.31 µM | 
12 | COc1ccc(NS(=O)(=O)c2cc(NC(=O)c3ccco3)ccc2N2CCCCC2)cc1 |  | inactive: -7.5%
13 | Oc1c(CN2CCOCC2)cc(COCc2ccccc2)c2cccnc12 | inconclusive: 20 µM [inhibitor, single point] | 
14 | COCCCNC(=O)CN(c1cc(Cl)ccc1OC)S(=O)(=O)c1ccc(C)c([N+](=O)[O-])c1 | inconclusive: 89.1 µM [inhibitor, single point] | 
15 | CCOCC(=O)Nc1cc(C(=O)Nc2cc(C)cc(C)c2)ccc1Cl |  | inactive: 10.3% [at 102 µM]
16 | CCn1ccnc1CN(C)Cc1cn[nH]c1-c1ccc(OC)c(F)c1 | inconclusive: 79.4 µM [inhibitor, single point] | 
17 | COc1ccc(NC(=O)Nc2cccc(C(F)(F)F)c2)cn1 |  | inactive: 14.2% [at 102 µM]
18 | CN(CCc1ccccn1)C(=O)CN(C)S(=O)(=O)c1ccc2c(c1)c(=O)n(C)c(=O)n2C |  | inactive: 11.6%
19 | Cc1cc(C)c2nc(-c3ccccn3)cc(C(=O)Nc3ccc(S(=O)(=O)Nc4cc(C)on4)cc3)c2c1 |  | inactive: -9.37% [at 0.501 µM]
20 | Cc1ccc(-c2nc(=S)c3c(n2CCN2CCOCC2)CC(C)(C)OC3)cc1 | inconclusive: 2.51 µM [inhibitor, partial curve, poor fit] | 
21 | Cn1c(=O)[nH]c(=O)c2c1nc(N1CCCCC1)n2CC(O)CN1CCCCC1 (centres undefined) | inconclusive: 70.8 µM [inhibitor, partial curve, poor fit] | 
22 | CCOc1ccc(NC(=O)c2c(C)oc3nc(C)nc(N4CCOCC4)c23)cc1 |  | inactive: -19.8%

Row | SMILES | Potency | activity, negative = inhibition
23 | CCOC(=O)N1CCC(=NNC(=O)c2ccccc2F)CC1 |  | inactive: -6.57%
24 | CCN1CCN(Cc2ccc(NC(=O)c3ccc(C)c(NC(=O)c4c[nH]c5cc(C(F)(F)F)ccc5c4=O)c3)cc2C(F)(F)F)CC1 |  | inconclusive: -86.3% [inhibitor]
25 | CCN1CCN(c2nc(-c3cccs3)nc3ccccc23)CC1 | inconclusive: 31.6 µM [inhibitor, single point] | 
26 | Cn1cc(S(=O)(=O)CC(=O)Nc2ccc3c(c2)OCO3)c2ccccc21 | inconclusive: 22.4 µM [inhibitor, partial curve, poor fit] | 
27 | Cc1cc(NC(=O)c2ccc([N+](=O)[O-])cc2)no1 |  | inactive: 20.3% [at 102 µM]
28 | CC(C)Oc1ccc(S(=O)(=O)N2CCCCC2)cc1NC(=O)CN1C(=O)NC2(CCCC2)C1=O | inconclusive: 89.1 µM [inhibitor, single point] | 
29 | O=C(CN1CCN(S(=O)(=O)c2ccc(Br)cc2)CC1)Nc1ccc2c(c1)OCO2 | inconclusive: 79.4 µM [inhibitor, single point] | 
30 | CCOc1cc(-c2cc(-c3ccc(C)cc3)nc(N)c2C#N)ccc1O |  | inactive: -32.9%
31 | COc1cc(CNCCc2c[nH]c3ccccc23)ccc1OCc1ccccc1F |  | inactive: 17.1% [at 0.501 µM]
32 | Cc1cc2cc(C(c3nnnn3Cc3ccco3)N3CCc4ccccc4C3)c(=O)[nH]c2cc1C (centres undefined) | inconclusive: 2.51 µM [inhibitor, partial curve, poor fit] | 
33 | COc1ccc(S(=O)(=O)NCC(c2ccco2)S(=O)(=O)c2cccs2)cc1F (centres undefined) |  | inactive: -0.456%
34 | Cc1ccc(CN2CCN(CC3CC4C=CC3C4)CC2)cc1 (centres undefined) |  | inconclusive: -146% [inhibitor]
35 | COc1cc(C2C(C#N)=C(N)N(c3ccc(F)cc3)C3=C2S(=O)(=O)CC3)ccc1O (centres undefined) | inconclusive: 50.1 µM [inhibitor, partial curve] | 
36 | CCn1c(=O)cc(SCC(=O)N2CCN(C(=O)c3ccco3)CC2)c2ccccc21 |  | inactive: -38.5% [at 102 µM]
37 | COc1ccc(NC(=O)CSc2nc(C)cc(C)c2C(=O)Nc2ccccc2OC)cc1 | inconclusive: 10 µM [inhibitor, partial curve] | 
38 | COc1cc(CN2CCC(C(=O)NC3CCCC3)CC2)cc(OC)c1O | active: 8.91 µM | 
39 | Cc1ccc(/C=C/C(=O)c2ccccc(=O)c2O)c(C)c1 | active: 50.1 µM | 
40 | O=C(O)c1nccnc1C(=O)Nc1ccc(Cl)cn1 | active: 44.7 µM | 
41 | C=C(C)C(=O)Nc1cccc(C2=NOC3(C2)C[C@H](C(N)=O)N(C(=O)C(c2ccccc2)c2ccccc2)C3)c1 (some centres undefined) | inconclusive: 11.2 µM [inhibitor, single point] | 
42 | Brc1ccccc1OCCCCn1cnc2ccccc21 |  | inactive: 1.69% [at 12.7 µM]
43 | CC(NCC1(N2CCOCC2)CCCCC1)C(=O)Nc1ccc(Cl)cc1Cl (centres undefined) | active: 31.6 µM | 
44 | C#CCOCCOCCOCCNc1nc(N2CCN(C(=O)[C@H]([C@@H](C)CC)n3cc([C@@H](N)CO)nn3)CC2)nc(N2CCN(C(=O)[C@H](CCCCN)n3cc([C@@H](N)CC(C)C)nn3)CC2)n1 |  | inconclusive: -82.1% [inhibitor]

— PubChem BioAssay AID504332 (National Center for Advancing Translational Sciences (NCATS), 2011)
